Reference: PubChem BioAssay (NCI)
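Cells were grown in 96-well plates and exposed to each compound for 48 hours at five concentrations; endpoints were interpolated linearly between bracketing concentrations, or set to the highest concentration if not reached. At the GI50, growth is halved. TGI: concentration producing complete growth inhibition.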

Test system: NCI-H322M lung
Assay: NCI-60 cell line screen, 48 h

Going from `COc1ccc2nc(Nc3cccc(NC(=O)c4ccc(CN5CCN(C)CC5)c(C(F)(F)F)c4)c3)ccc2c1` to `COc1cnc2c(c1)C(=O)c1c-2n(CCCNCCO)c(=O)c2cc(F)ccc12`, the GI50 falls from 6.06 µM to 0.821 µM (7.4-fold).

Compared with `Cc1ccc(Cl)cc1NC(=O)N/C(N)=N/c1nc2ccccc2s1`, `CC[C@]12C=CCN3CC[C@@]4(c5ccc(OC)cc5N(C)[C@H]4[C@@](O)(C(=O)OC)[C@@H]1OC(=O)CCC[P+](C1CCCCC1)(C1CCCCC1)C1CCCCC1)[C@@H]32` is 16-fold higher in GI50: 0.368 µM for the first, 5.79 µM for the second.

Going from `COc1ccc2nc(Nc3cccc(NC(=O)c4ccc(CN5CCN(C)CC5)c(C(F)(F)F)c4)c3)ccc2c1` to `COc1cnc2c(c1)C(=O)c1c-2n(CCCNCCO)c(=O)c2cc(F)ccc12`, the TGI falls from 11.4 µM to 3.74 µM (3-fold).

`Cc1ccc(Cl)cc1NC(=O)N/C(N)=N/c1nc2ccccc2s1` and `CC[C@]12C=CCN3CC[C@@]4(c5ccc(OC)cc5N(C)[C@H]4[C@@](O)(C(=O)OC)[C@@H]1OC(=O)CCC[P+](C1CCCCC1)(C1CCCCC1)C1CCCCC1)[C@@H]32` are within 1.5-fold of each other in TGI: 18.9 µM for the first, 18.6 µM for the second.
